This passage reports skin moisture and itching results from patent publication US20100222309A1, “SKIN PROPERTY-IMPROVING THERAPEUTIC AGENT COMPRISING A MORPHINAN DERIVATIVE OR ANY OF ITS PHARMACOLOGICALLY PERMISSIBLE ACID ADDITION SALTS AS AN ACTIVE INGREDIENT” (TORAY INDUSTRIES, INC., priority 2007, published 2010).

The test system of the assay is itch patients treated with hemodialysis. Nature of the assay: Oral administration of compound 1 soft capsules to itch patients treated with hemodialysis; skin properties and itching observed. The note with it: one of the patients, about 4 to 5 days after start of administration.

For `CN(C(=O)/C=C/c1ccoc1)[C@@H]1CC[C@@]2(O)[C@H]3Cc4ccc(O)c5c4[C@@]2(CCN3CC2CC2)[C@H]1O5.Cl` [compound 1], the skin moisture result was “began to have moist skin”. In addition, the itching entry (wrists to shoulders and breasts) is reported as “relieved of the itching”.
